Binding data for one molecule are collected here from PMC8249470, “Binding of guide piRNA triggers methylation of the unstructured N-terminal region of Aub leading to assembly of the piRNA amplification complex” (Nature Communications, 2021).

Test [1] has as its target T1, Aub with the N-terminal region (1-220aa) deleted (Drosophila melanogaster) (UniProt O76922).
T1 sequence: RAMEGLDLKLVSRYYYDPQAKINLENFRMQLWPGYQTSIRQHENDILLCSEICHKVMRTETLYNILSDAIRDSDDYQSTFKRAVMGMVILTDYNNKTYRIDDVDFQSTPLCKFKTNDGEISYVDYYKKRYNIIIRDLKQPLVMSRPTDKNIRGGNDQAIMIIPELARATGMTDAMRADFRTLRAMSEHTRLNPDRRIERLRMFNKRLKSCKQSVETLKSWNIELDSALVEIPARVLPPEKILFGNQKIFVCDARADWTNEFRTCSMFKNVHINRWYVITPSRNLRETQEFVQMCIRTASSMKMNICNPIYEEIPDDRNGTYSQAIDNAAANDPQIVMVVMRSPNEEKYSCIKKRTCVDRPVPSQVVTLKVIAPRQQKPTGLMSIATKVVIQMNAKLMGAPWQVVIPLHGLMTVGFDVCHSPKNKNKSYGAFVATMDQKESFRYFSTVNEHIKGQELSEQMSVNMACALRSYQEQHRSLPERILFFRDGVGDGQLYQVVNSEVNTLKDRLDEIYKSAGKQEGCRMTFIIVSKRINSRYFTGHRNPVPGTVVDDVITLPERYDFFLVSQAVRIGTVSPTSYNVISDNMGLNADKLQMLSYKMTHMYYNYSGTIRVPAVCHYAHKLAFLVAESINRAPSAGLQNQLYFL
Description: co-IP; tagged proteins co-expressed in S2 cells; lysis buffer 20 mM Tris pH 7.4, 200 mM KCl, 0.1% Tween-20, 0.1% Igepal, 100 μg/mL RNase A; anti-FLAG, anti-HA or anti-GFP beads, 4 °C, 4 h; Western blot; in Fig. 6e lysates were incubated with or without ssRNA oligo before the co-IP. For orientation: A western blot detects proteins with antibodies after separation by electrophoresis.

Test [2] deals with T2, Aub N-terminal fragment (1-220aa) (Drosophila melanogaster) (UniProt O76922).
T2 sequence: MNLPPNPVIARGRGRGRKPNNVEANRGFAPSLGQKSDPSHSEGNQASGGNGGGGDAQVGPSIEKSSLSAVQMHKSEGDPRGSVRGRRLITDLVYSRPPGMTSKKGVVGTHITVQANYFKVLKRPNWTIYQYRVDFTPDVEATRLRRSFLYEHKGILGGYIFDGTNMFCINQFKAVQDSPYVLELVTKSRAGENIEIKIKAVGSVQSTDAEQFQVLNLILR
The test is described as above.

Results are given in words; binding and its absence hold for the method and conditions named. Binding seen in cells or lysates may run through a third protein. Some entries that bind do so weakly or less than the wild type. Sequences can lack the tags named with a protein.

B1: Csul (tag not named; co-IP with Aub fragments) (enzyme, UniProt Q9U6Y9 1-610)
chain: MNYYVCLHQEGVNSIPKLIEKAFANNYNVVSTSINANMLPFEPHESDPTYPATILSGSDWNSKVIFTMSDVNVDSPNDKLREHAKEVFMRDVAWAEHLQNVGNLMVRLRGPENENLASIVLAKTKDDFPSGNWFIQVPITNPELATFEHRKDATAEEVAEAESNDPWNWWNNLRMVTKHSTKVKVVIELNDADRPSKETVRRWLGEPIEAIIIPSSLFVRNRSNYCVLKKEWQLIVGHFISVRANIIISTNPNDKALCQYADYVNKLINDNCDKHMLNSYENMLEIPLQPLCDNLDTYTYEVFETDPVKYKLYQDAVQAALLDRVSAAEAKTKLTVVMLLGGGRGPLARAVFNAAELTKRKVRLYIIEKNPNAIRTLSNMVKTLWADKDVHIFSKDMRDFSPPELADIMVSELLGSFGDNELSPECLDGALKLLKPDGISIPYKSTSYINPLMSAVLHQNVCQLLPTYPAFDYGYVSLLKNIYHIDEPQALFEFVHPNRAENIDNTRCKTVSFKVNKDCVLHGIGGYFDTHLYKDICLSINPLTHTPGMFSWFPMFFATRPRTLREGQTISIQFWRCVDATKVWYEWQVVNSPDDWEHHNTRGTGYNMRL
As for B1, the binding result in test [1] was “no binding”; in test [2] it was “binds”.
